Measured values reported in the supplement of paper PMC3334620.
The full ranking holds about 33,000 sequences; the median of “E-score (-0.5 to 0.5)” is about -0.011, and the highest 2% start at about 0.28. The list shows a part of the results.

Biological target: T1, Gcr1 (UniProt P07261)
T1 sequence: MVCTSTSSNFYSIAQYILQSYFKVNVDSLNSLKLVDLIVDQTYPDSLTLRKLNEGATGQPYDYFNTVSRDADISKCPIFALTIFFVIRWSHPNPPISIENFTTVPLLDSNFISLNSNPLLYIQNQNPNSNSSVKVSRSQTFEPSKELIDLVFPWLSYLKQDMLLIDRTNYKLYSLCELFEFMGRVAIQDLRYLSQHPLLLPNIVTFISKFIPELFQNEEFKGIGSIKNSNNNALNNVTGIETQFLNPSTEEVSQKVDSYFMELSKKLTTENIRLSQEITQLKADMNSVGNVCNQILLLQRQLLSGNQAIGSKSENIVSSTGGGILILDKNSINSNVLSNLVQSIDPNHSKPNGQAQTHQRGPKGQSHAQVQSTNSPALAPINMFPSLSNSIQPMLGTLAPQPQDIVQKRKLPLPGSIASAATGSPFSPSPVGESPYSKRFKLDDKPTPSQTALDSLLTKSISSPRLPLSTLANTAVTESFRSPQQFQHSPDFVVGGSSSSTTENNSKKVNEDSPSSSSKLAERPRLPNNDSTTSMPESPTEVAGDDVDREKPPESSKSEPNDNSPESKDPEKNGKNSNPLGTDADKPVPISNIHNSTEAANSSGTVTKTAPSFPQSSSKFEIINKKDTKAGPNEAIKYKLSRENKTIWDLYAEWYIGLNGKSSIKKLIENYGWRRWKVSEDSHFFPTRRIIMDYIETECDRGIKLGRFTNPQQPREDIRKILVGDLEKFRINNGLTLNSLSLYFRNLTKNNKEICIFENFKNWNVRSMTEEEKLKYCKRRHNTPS
Assay: PBM E-score (8-mer binding enrichment) (E-score (-0.5 to 0.5)); higher = stronger / more preferred TF binding; most listed sequences are background and not binding sites
Settings: protein concentration: 100 nM; construct: GST-full length
Procedure, shortened: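 Universal all-10-mer Agilent arrays, double-stranded by primer extension on fresh or once-stripped slides, were probed with about 100-200 nM GST-tagged yeast transcription factors made by PURExpress. Fluorescent anti-GST detected bound protein, and masliner normalised the scans. E-scores from the Universal PBM Analysis Suite were given to each ungapped eight-base word pooled with its reverse complement.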

Sequence | PBM E-score
ACATCAGC | -0.183
CGGACCCC | -0.122
GACTAGAA | 0.217
ATCGGCGG | 0.108
CTTGGGTA | 0.0295
ATATTAGG | 0.139
AGCATGTC | -0.242
GGATAACA | -0.0742
ACGTTCAA | -0.0358
ATTGCAAT | -0.114
ATCGACAA | 0.0447
AGTACCCC | 0.0894
AGGATGGA | -0.0308
TAACGACA | 0.0292
GTAGCTCA | 0.208
CCCTAGAG | -0.0641
GCCTATCC | -0.0363
ATCAAAGA | -0.0208
GATTCGGC | -0.12
CCTGCGTC | -0.191
CAACGGGC | -0.0626
GCCAACGA | -0.191
AAATTTAG | 0.148
AACAAACA | 0.157

Sequence | PBM E-score
CCGGAGCG | 0.0872
GACGGTCC | -0.285
ACAAGTTG | 0.214
GATGTTCA | -0.12
CAACTTAG | 0.207
AAACGGAG | -0.235
GATTGTAA | -0.0982
AAGCTATT | -0.0804
ACGACGAG | -0.113
CTGTTATA | 0.00213
TCAGGGCA | -0.0108
TGCATCCA | 0.182
ACTACGCT | -0.087
GCACACCC | -0.0656
CCGAAGTC | 0.0182
CTACGCCA | -0.0727
ATGGGCGC | 0.187
ACGGGTTG | -0.0981
GGTAAGCA | -0.00581
AGCACGCA | -0.18
AAACCCCT | -0.183
ACATGAGA | 0.0532
ATTAGAAC | 0.149
TCTGTTAA | 0.0337

Sequence | PBM E-score
GACTAAGC | -0.126
CAGCTACA | 0.121
GCCTTGCC | -0.267
CAATACGA | 0.129
ACGGTCTG | -0.0534
GTGCCCAA | 0.041
GAGTATAC | -0.0865
CTTTAAAA | -0.048
AATCTGAG | 0.072
CGTAAGTC | -0.109
ACCATTCG | 0.068
ATTGCAAA | 0.0574
GGGAAAAC | -0.101
GACTGTCC | -0.247
CAAGCTTA | -0.263
GCCGGCCC | -0.151
CAATCAGG | 0.0953
TATGACAA | 0.00222
CGGTTAGC | -0.0704
CGTTAATA | 0.171
ATTAAGTA | -0.0148
GGGACAAC | -0.0636
GCCGCCGA | 0.0471
ATTCACGA | -0.0123

Sequence | PBM E-score
AGGGATAA | -0.0814
GACCCTGC | -0.0674
CGGTAGGA | 0.0143
AGGCAAAG | -0.122
AATGGAGA | 0.0304
ACTAGTCT | 0.0634
ATTTGTTG | 0.0123
TAAACATA | 0.138
CCGGTCGA | -0.0987
AAACATAA | 0.0996
ATAATCCA | 0.0929
ATAGGGAG | -0.0215
GGGTACGA | 0.0347
ATCTACAT | 0.0423
CCCACTTC | 0.276
ATATCCAG | 0.156
AGGGCGTA | -0.00036
CGTGCCGA | -0.0978
ATCCTACG | -0.00941
TACAAGTA | 0.123
GCACCGGC | -0.0966
AGGGCAAT | -0.141
